Paper PMC10864387
Where a chain is given by its changes, count along the chain named. These are yes or no findings as the source states them, for the method shown. For some assays here: In cells and extracts the contact can be indirect. Some entries that bind do so weakly or less than the wild type. For some assays here: Sequences can lack the tags named with a protein.

Sequences of proteins named here, by UniProt entry; tags and fusion partners are left off.
UniProt P42224: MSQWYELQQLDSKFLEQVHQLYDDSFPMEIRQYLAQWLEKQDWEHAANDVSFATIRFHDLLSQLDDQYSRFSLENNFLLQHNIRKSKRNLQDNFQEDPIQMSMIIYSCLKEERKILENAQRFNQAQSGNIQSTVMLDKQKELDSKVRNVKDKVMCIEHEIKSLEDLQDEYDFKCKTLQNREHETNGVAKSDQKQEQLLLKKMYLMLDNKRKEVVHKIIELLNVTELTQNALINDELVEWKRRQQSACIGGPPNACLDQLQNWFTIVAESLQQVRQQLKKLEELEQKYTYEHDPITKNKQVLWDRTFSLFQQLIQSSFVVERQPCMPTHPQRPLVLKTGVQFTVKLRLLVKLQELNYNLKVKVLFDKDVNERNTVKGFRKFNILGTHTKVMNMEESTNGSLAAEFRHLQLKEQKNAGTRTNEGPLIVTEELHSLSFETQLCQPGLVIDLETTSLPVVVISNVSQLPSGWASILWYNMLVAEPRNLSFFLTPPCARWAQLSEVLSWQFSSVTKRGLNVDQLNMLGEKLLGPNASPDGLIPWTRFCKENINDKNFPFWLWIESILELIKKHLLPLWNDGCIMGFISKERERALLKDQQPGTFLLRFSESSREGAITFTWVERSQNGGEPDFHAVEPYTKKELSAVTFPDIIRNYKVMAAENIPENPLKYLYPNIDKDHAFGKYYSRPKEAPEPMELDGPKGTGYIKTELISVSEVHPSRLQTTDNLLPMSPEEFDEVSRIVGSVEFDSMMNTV
UniProt P68366: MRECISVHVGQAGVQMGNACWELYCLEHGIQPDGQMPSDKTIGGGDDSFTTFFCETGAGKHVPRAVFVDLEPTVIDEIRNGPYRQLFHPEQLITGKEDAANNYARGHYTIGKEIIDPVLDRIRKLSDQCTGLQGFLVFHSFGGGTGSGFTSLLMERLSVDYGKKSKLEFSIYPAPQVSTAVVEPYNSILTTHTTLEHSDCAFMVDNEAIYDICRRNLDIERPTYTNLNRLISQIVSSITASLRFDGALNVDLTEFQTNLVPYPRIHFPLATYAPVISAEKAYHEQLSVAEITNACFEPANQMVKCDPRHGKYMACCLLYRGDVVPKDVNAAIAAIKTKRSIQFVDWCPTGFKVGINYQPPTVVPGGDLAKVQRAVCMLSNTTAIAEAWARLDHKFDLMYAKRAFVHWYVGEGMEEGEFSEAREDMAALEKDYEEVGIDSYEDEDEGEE

Key:
[1] = target: T1, Flag-tagged HKDC1 (human) (UniProt Q2TB90); experiment: co-IP; Flag- or HA-tagged proteins expressed in Hep3B (HCC) cells, with or without IFNγ stimulation, cells expressing NTC, shHKDC1 or shACTA2; NP-40 IP buffer, antibody overnight at 4 °C, protein A/G beads, Western blot
T1 sequence: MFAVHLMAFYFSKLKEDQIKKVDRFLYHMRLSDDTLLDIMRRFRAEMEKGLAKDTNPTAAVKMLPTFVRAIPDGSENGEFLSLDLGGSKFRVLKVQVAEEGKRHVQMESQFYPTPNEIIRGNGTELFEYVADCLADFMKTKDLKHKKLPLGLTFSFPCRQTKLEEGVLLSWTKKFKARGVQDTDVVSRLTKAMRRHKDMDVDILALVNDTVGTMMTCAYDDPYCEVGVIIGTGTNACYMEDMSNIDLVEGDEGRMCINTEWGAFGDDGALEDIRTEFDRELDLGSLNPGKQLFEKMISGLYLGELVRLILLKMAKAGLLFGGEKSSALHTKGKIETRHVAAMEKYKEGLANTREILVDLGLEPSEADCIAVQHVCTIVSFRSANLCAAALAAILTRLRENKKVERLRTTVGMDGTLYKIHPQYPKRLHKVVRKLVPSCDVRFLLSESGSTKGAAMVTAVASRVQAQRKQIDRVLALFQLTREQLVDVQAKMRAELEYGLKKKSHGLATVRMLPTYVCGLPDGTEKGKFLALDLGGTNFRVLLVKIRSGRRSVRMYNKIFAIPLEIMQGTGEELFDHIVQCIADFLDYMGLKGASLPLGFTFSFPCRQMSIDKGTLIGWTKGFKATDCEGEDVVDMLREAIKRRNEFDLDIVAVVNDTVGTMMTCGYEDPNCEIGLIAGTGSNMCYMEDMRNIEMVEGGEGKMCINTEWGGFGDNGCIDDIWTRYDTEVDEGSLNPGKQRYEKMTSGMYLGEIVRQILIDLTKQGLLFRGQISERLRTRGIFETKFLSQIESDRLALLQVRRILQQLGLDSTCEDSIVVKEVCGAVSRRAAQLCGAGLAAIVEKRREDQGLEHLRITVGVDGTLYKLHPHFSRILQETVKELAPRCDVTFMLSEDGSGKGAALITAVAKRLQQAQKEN

[2] = target: T2, hexokinase domain component 1 (HKDC1), endogenous (human (endogenous in Hep3B)) (UniProt Q2TB90); experiment: co-IP; endogenous proteins in Hep3B (HCC) cells; NP-40 IP buffer (20 mM Tris-HCl pH 7.5, 150 mM NaCl, 1.5 mM MgCl2, 2 mM EDTA, 1% NP-40), antibody overnight at 4 °C, protein A/G beads, Western blot
T2 sequence: T1 sequence

[3] = target: T3, GST-HKDC1^S602A (human) (UniProt Q2TB90); experiment: pull-down; GST-fused HKDC1 and His-tagged STAT1 purified from E. coli, incubated in vitro in pull-down buffer (150 mM NaCl, 50 mM Tris pH 7.5, 0.1% NP-40, 5 mM dithiothreitol); Western blot with antibody against His-tag; both purified
T3 sequence: T1 sequence with S602A

[4] = target: T4, GST-HKDC1^WT (human) (UniProt Q2TB90); experiment: as above
T4 sequence: T1 sequence

[5] = target: T5, Flag-tagged IFNγ receptor 1 (IFNGR1) (UniProt P15260); experiment: co-IP; Flag- or HA-tagged proteins expressed in Hep3B (HCC) cells, with or without IFNγ stimulation, cells expressing NTC, shHKDC1 or shACTA2; NP-40 IP buffer, antibody overnight at 4 °C, protein A/G beads, Western blot
T5 sequence: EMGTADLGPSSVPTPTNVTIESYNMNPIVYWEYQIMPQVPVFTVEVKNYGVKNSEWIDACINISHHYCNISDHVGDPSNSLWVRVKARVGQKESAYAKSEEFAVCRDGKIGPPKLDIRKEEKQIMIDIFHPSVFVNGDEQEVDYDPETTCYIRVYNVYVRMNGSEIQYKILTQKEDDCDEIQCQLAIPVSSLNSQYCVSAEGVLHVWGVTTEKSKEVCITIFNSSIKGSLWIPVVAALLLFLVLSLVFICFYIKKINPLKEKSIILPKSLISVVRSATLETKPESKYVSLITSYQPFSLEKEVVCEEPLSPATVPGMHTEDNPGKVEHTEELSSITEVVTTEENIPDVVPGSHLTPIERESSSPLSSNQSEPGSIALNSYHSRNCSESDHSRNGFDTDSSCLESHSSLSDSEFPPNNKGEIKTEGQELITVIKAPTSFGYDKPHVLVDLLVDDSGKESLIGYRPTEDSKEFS

## HA-tagged STAT1 (from UniProt P42224 1-750)
[1]
  binding: binds

## STAT1, endogenous (from UniProt P42224 1-750)
[2]
  binding: binds

## STAT1-His (from UniProt P42224 1-750)
[3]
  binding: binds
[4]
  binding: binds

## TUBA4A, endogenous (from UniProt P68366 1-448)
[1]
  binding: no binding
[2]
  binding: no binding

B1: hexokinase domain component 1 (HKDC1), endogenous (protein, UniProt Q2TB90 1-917)
chain: T1 sequence
[5]
  binding: binds

B2: HA-tagged HKDC1 (protein, UniProt Q2TB90 1-917)
chain: T1 sequence
[5]
  binding: binds
